From patent US20150071918A1 (H LEE MOFFITT CANCER CENTER AND RESEARCH INSTITUTE, published 2015) come the findings set out here.

This assay deals with T1, CD44 (endogenous, of NCI-H929, U266, U937 and HL-60 cells) (human, UniProt P16070 21-742).
T1 construct: Endogenous protein: from membrane extracts/lysates in the pull-downs, on whole cells in the confocal work; Isoform not determined (pan-CD44 antibody; cells are said to express CD44s, CD44v3 and CD44v9); also called glycoprotein adhesion receptor CD44
The experiment in a line: pull-down from H929 membrane extract with biotin on NeutrAvidin beads, western blot with a pan-CD44 antibody. A general note: In western blotting, separated proteins are transferred to a membrane and probed.

T1 sequence (P16070 21-742 limits assumed): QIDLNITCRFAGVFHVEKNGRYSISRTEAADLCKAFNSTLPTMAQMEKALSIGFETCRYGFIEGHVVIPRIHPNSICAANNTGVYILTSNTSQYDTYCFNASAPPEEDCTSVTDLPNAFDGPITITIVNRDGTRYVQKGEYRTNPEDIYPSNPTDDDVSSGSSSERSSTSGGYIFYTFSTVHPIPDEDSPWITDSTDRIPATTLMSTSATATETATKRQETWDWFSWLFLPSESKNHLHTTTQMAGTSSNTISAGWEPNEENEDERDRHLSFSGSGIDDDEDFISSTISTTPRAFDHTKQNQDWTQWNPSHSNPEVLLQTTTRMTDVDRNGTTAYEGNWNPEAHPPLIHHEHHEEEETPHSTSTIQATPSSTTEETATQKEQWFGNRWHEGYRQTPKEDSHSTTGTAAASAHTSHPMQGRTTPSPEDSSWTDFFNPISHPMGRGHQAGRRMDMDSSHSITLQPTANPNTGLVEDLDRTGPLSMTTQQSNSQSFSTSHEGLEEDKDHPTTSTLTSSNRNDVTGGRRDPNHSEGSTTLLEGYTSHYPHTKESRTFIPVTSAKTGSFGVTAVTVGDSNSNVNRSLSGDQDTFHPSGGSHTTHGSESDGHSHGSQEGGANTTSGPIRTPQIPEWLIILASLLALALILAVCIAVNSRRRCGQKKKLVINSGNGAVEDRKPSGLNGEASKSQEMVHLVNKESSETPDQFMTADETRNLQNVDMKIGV

B1: biotin-coated NeutrAvidin (control) (other, UniProt P02701 25-152, looked up)
chain: ARKCSLTGKWTNDLGSNMTIGAVNSRGEFTGTYITAVTATSNEIKESPLHGTQNTINKRTQPTFGFTVNWKFSESTTVFTGQCFIDRNGKEVLKTMWLLRSSVNDIGDDWKATRVGINIFTRLRTQKE
modifications: biotin bound (non-covalent)
notes: also called Biotin-coated NetraAvidin
Turning to B1, the binding result was “no binding (tested: 30 ug membrane extract (legend))”.
